Over roughly 81,000 sequences, “one-hybrid fitness for binding NBS DNA” has its median near -0.1; the highest 2% begin near 0.36. The list shows a part of the results.
B1: Caulobacter ParB omega fusion; a variant is named by its letters at X, in order, B8GW30 (parent)
chain: MESVVVGEPGMSEGRRGLGRGLSALLGEVDAAPAQAPGEQLGGSREAPIEILQRNPDQPRRTFREEDLEDLSNSIREKGVLQPILVRPSPDTAGEYQIVAGERAWRAAQRAGLKTVPIMVRELDDLAVLEIGIIENVQRADLNVLEEALSYKVLMEKFERTQENIAQTIGKSXSHVANXMRLLXLPDEVQSYLVSGELTAXHARAIAAAADPVALAKQIIEGGLSVRETEALARKAPNLSAGKSKGGRPPRVKDTDTQALESDLSSVLGLDVSIDHRGSTGTLTITYATLEQLDDLCNRLTRGI

Variants of: B1
Assay: one-hybrid fitness for binding NBS DNA (the Noc-binding site; scaled: cognate 1, non-cognate 0); higher = stronger binding
Conditions: with NBS DNA site
Method in brief: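 The reporter was HIS3, with the binding site 19 bp from the promoter, in E. coli USO used for bacterial one-hybrid selection of Caulobacter ParB libraries with four specificity codons randomised. Growth was on M9 lacking histidine, with 0.1 mM IPTG and 5 mM 3-AT, for 48 hours at 37°C. Illumina sequencing covered plasmids before and after selection; three replicate libraries were pooled and variants with under 10 reads dropped. A fitness score is the log change in variant-to-wild-type read ratio, rescaled to the cognate and non-cognate references.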
With GNQA the “one-hybrid fitness for binding NBS DNA” value was no more than 0.2. With DLYC the “one-hybrid fitness for binding NBS DNA” value was no more than 0.2. LGWV was tested, and the “one-hybrid fitness for binding NBS DNA” value was no more than 0.2. In the case of ERHP, the “one-hybrid fitness for binding NBS DNA” value is reported as no more than 0.2. For PPIS, the “one-hybrid fitness for binding NBS DNA” value was no more than 0.2. With RRDE the “one-hybrid fitness for binding NBS DNA” value was no more than 0.2. For GAYD, the “one-hybrid fitness for binding NBS DNA” value was no more than 0.2. VSNE was tested, and the “one-hybrid fitness for binding NBS DNA” value was no more than 0.2. For SACL, the “one-hybrid fitness for binding NBS DNA” value was no more than 0.2. With FFKL the “one-hybrid fitness for binding NBS DNA” value was no more than 0.2. With ITLN the “one-hybrid fitness for binding NBS DNA” value was no more than 0.2. With LLFT the “one-hybrid fitness for binding NBS DNA” value was no more than 0.2. In the case of FSVM, the “one-hybrid fitness for binding NBS DNA” value is reported as no more than 0.2. HSCG was tested, and the “one-hybrid fitness for binding NBS DNA” value was no more than 0.2. With ETYC the “one-hybrid fitness for binding NBS DNA” value was no more than 0.2. In the case of LNNY, the “one-hybrid fitness for binding NBS DNA” value is reported as no more than 0.2. TPDG was tested, and the “one-hybrid fitness for binding NBS DNA” value was no more than 0.2. For NNST, the “one-hybrid fitness for binding NBS DNA” value was no more than 0.2. VLTD was tested, and the “one-hybrid fitness for binding NBS DNA” value was no more than 0.2. In the case of ILHG, the “one-hybrid fitness for binding NBS DNA” value is reported as no more than 0.2. PYLE was tested, and the “one-hybrid fitness for binding NBS DNA” value was no more than 0.2. For KTIA, the “one-hybrid fitness for binding NBS DNA” value was no more than 0.2. GLHF was tested, and the “one-hybrid fitness for binding NBS DNA” value was no more than 0.2. With LPQT the “one-hybrid fitness for binding NBS DNA” value was no more than 0.2. GRPF was tested, and the “one-hybrid fitness for binding NBS DNA” value was no more than 0.2. With RGYF the “one-hybrid fitness for binding NBS DNA” value was no more than 0.2. With RYWF the “one-hybrid fitness for binding NBS DNA” value was no more than 0.2. With NVSW the “one-hybrid fitness for binding NBS DNA” value was no more than 0.2. For RYNW, the “one-hybrid fitness for binding NBS DNA” value was no more than 0.2. TEHM was tested, and the “one-hybrid fitness for binding NBS DNA” value was no more than 0.2. With EQLR the “one-hybrid fitness for binding NBS DNA” value was no more than 0.2. In the case of RTIA, the “one-hybrid fitness for binding NBS DNA” value is reported as no more than 0.2. In the case of DVRW, the “one-hybrid fitness for binding NBS DNA” value is reported as no more than 0.2. In the case of PYWC, the “one-hybrid fitness for binding NBS DNA” value is reported as no more than 0.2. For MVIR, the “one-hybrid fitness for binding NBS DNA” value was no more than 0.2. With FRHG the “one-hybrid fitness for binding NBS DNA” value was no more than 0.2. For DFST, the “one-hybrid fitness for binding NBS DNA” value was no more than 0.2. For HEKH, the “one-hybrid fitness for binding NBS DNA” value was no more than 0.2. For CKNG, the “one-hybrid fitness for binding NBS DNA” value was no more than 0.2. In the case of YINY, the “one-hybrid fitness for binding NBS DNA” value is reported as no more than 0.2. TARN was tested, and the “one-hybrid fitness for binding NBS DNA” value was no more than 0.2. In the case of ASEK, the “one-hybrid fitness for binding NBS DNA” value is reported as no more than 0.2. In the case of QHFL, the “one-hybrid fitness for binding NBS DNA” value is reported as no more than 0.2. In the case of SYNS, the “one-hybrid fitness for binding NBS DNA” value is reported as no more than 0.2. With ASRR the “one-hybrid fitness for binding NBS DNA” value was no more than 0.2. RAFN was tested, and the “one-hybrid fitness for binding NBS DNA” value was no more than 0.2. In the case of LCTE, the “one-hybrid fitness for binding NBS DNA” value is reported as no more than 0.2. VAQA was tested, and the “one-hybrid fitness for binding NBS DNA” value was no more than 0.2. AAHG was tested, and the “one-hybrid fitness for binding NBS DNA” value was no more than 0.2. KALK was tested, and the “one-hybrid fitness for binding NBS DNA” value was no more than 0.2. With GLDY the “one-hybrid fitness for binding NBS DNA” value was no more than 0.2. RFNW was tested, and the “one-hybrid fitness for binding NBS DNA” value was no more than 0.2. In the case of WQLV, the “one-hybrid fitness for binding NBS DNA” value is reported as no more than 0.2. ALIN was tested, and the “one-hybrid fitness for binding NBS DNA” value was no more than 0.2. For QDQA, the “one-hybrid fitness for binding NBS DNA” value was no more than 0.2. In the case of YLDC, the “one-hybrid fitness for binding NBS DNA” value is reported as no more than 0.2. For SWLL, the “one-hybrid fitness for binding NBS DNA” value was no more than 0.2. For PFGL, the “one-hybrid fitness for binding NBS DNA” value was no more than 0.2. YYCY was tested, and the “one-hybrid fitness for binding NBS DNA” value was no more than 0.2. For MDRR, the “one-hybrid fitness for binding NBS DNA” value was no more than 0.2. For PQAQ, the “one-hybrid fitness for binding NBS DNA” value was no more than 0.2. In the case of MGRR, the “one-hybrid fitness for binding NBS DNA” value is reported as no more than 0.2. In the case of RFKP, the “one-hybrid fitness for binding NBS DNA” value is reported as no more than 0.2. QRTM was tested, and the “one-hybrid fitness for binding NBS DNA” value was 0.414. LQEG was tested, and the “one-hybrid fitness for binding NBS DNA” value was no more than 0.2. In the case of KVAG, the “one-hybrid fitness for binding NBS DNA” value is reported as no more than 0.2. DTVC was tested, and the “one-hybrid fitness for binding NBS DNA” value was no more than 0.2. In the case of RNWT, the “one-hybrid fitness for binding NBS DNA” value is reported as no more than 0.2. With YRWR the “one-hybrid fitness for binding NBS DNA” value was no more than 0.2. For QRQM, the “one-hybrid fitness for binding NBS DNA” value was 0.395. For YMTI, the “one-hybrid fitness for binding NBS DNA” value was no more than 0.2. CHNT was tested, and the “one-hybrid fitness for binding NBS DNA” value was no more than 0.2. QTYV was tested, and the “one-hybrid fitness for binding NBS DNA” value was no more than 0.2. With PDLN the “one-hybrid fitness for binding NBS DNA” value was no more than 0.2. With RVAE the “one-hybrid fitness for binding NBS DNA” value was no more than 0.2. PIYS was tested, and the “one-hybrid fitness for binding NBS DNA” value was no more than 0.2. In the case of NICS, the “one-hybrid fitness for binding NBS DNA” value is reported as no more than 0.2. In the case of PVLR, the “one-hybrid fitness for binding NBS DNA” value is reported as no more than 0.2. For PSFM, the “one-hybrid fitness for binding NBS DNA” value was no more than 0.2. HSYG was tested, and the “one-hybrid fitness for binding NBS DNA” value was no more than 0.2. In the case of VWTW, the “one-hybrid fitness for binding NBS DNA” value is reported as no more than 0.2. In the case of VTIR, the “one-hybrid fitness for binding NBS DNA” value is reported as no more than 0.2. AESI was tested, and the “one-hybrid fitness for binding NBS DNA” value was no more than 0.2. RTLI was tested, and the “one-hybrid fitness for binding NBS DNA” value was no more than 0.2.

From a collection of fitness landscapes (doi:10.1016/j.celrep.2020.107928)
